# Measurements published in publication PMC10189885, “Transcription activation by the resistance protein AlbA as a tool to evaluate derivatives of the antibiotic albicidin” (Chemical Science, 2023).
# B1: pAlbA 41 bp promoter fragment (dsDNA)
# DNA 1: TTAGCGCTTGACCCTGACGTCACGTCAGGCAGCAGAGTCGT
# DNA 2: ACGACTCTGCTGCCTGACGTGACGTCAGGGTCAAGCGCTAA
# Experiments:
# E. coli gyrase = target: T1, E. coli gyrase (Escherichia coli, UniProt P0AES4+P0AES6); type: biochemical; set-up: key: 0, equal to the activity of albicidin; -, lower than the activity of albicidin; +, higher than the activity of albicidin; conditions: 45 nM compound, relative to albicidin, 37 °C, 30 min
# T1 construct: purchased Inspiralis Limited, Norwich, UK
# Procedure: (§1) E. coli growth inhibition assay
# (§2) liquid culture were conducted.
# (§3) All assays were set up in triplicates.
# (§4) scanner (Epson) with argusX.
# (§5) overnight at 37 °C, 200 rpm shaking.
# (§6) 95 μL of the inoculum were applied
# (§7) Previously, the dry antibiotic compounds were
# (§8) The antimicrobial effect of the solvent
# (§9) Both microdilution trays and agar plates
# (§10) DNA-Gyrase inhibition testing
# (§11) The final DMSO concentration was 3%.
# (§12) AlbA and its mutants were diluted in […]
# S. Typhimurium TA100 = test: MIC determination (microdilution); type: cell-based; conditions: MHBII, 37 °C, 20 h; for MIC: Salmonella enterica, TYPHIMURIUM
# Procedure: as §1, §2, §3, §4, §5, §6, §7, §8, §9, §10, §11, §12
# B. subtilis DSM10 = test: MIC determination (microdilution); type: cell-based; conditions: Bacillus subtilis, DSM10, 20 h, read-out: MIC B. subtilis DSM10
# Procedure: as §1, §2, §3, §4, §5, §6, §7, §8, §9, §10, §11, §12
# E. coli BW25113 = test: MIC determination (microdilution); type: cell-based; conditions: for MIC: Escherichia coli, BW25113, 20 h, read-out: MIC E. coli BW25113
# Procedure: as §1, §2, §3, §4, §5, §6, §7, §8, §9, §10, §11, §12
# E. coli DSM1116 = test: MIC determination (microdilution); type: cell-based; conditions: for MIC: Escherichia coli, DSM1116, 20 h, read-out: MIC E. coli DSM1116
# Procedure: as §1, §2, §3, §4, §5, §6, §7, §8, §9, §10, §11, §12
# M. phlei DSM750 = test: MIC determination (microdilution); type: cell-based; conditions: Mycolicibacterium phlei, DSM750, 20 h, read-out: MIC M. Phlei DSM750
# Procedure: as §1, §2, §3, §4, §5, §6, §7, §8, §9, §10, §11, §12
# M. luteus DSM1790 = test: MIC determination (microdilution); type: cell-based; conditions: Micrococcus luteus, DSM1790, 20 h, read-out: MIC M. Luteus DSM1790
# Procedure: as §1, §2, §3, §4, §5, §6, §7, §8, §9, §10, §11, §12
# [1] = target: AlbAS (short AlbA lacking the DNA-binding domain) (Klebsiella oxytoca, UniProt Q8KRS7 1-221); test: EMSA; about 10.2 uM AlbAS; conditions: protein: recombinant; blunt
Molecule,MIC (S. Typhimurium TA100),MIC (B. subtilis DSM10),MIC (E. coli BW25113),MIC (E. coli DSM1116),other results
COc1c(NC(=O)c2ccc(-n3cc(-c4ccc(NC(=O)[C@H](CC#N)NC(=O)c5ccc(NC(=O)/C(C)=C/c6ccc(O)cc6)cc5)cc4)nn3)c(OC)c2O)ccc(C(=O)O)c1O [Compound 12],0.125 mg/L,1 mg/L,1 mg/L,0.5 mg/L,gyrase inhibition (E. coli gyrase): -
COc1c(NC(=O)c2ccc(NC(=O)c3ccc(NC(=O)[C@H](Cc4cnn[nH]4)NC(=O)c4ccc(NC(=O)c5ccc6cc(O)ccc6c5)cc4)cn3)c(OCCN)c2O)ccc(C(=O)O)c1O [Compound 13],0.5 mg/L,> 8 mg/L,4 mg/L,2 mg/L,MIC (M. phlei DSM750): > 8 mg/L; MIC (M. luteus DSM1790): > 8 mg/L
guanidino-albicidin [Compound 20],,,,,"MIC S. Typhimurium TA100 (S. Typhimurium TA100): 0.063 mg/L; MIC E. coli BW25113 (E. coli BW25113; MHBII, 37 °C, 20 h): 1 mg/L; MIC E. coli DSM1116 (E. coli DSM1116; MHBII, 37 °C, 20 h): 4 mg/L"
B1,,,,,binding result [1]: no binding
